Test results published in the RNAGym collection of RNA variant scans (doi:10.1093/nar/gkz1192).
The source gives no read counts; variants with many changes may rest on few reads.

B1: CPEB3 Ribozyme (parent)
chain: UAACAGGGGGCCACAGCAGAAGCGUUCACGUCGCAGCCCCUGUCAGAUUCUGGUGAAUCUGCGAAUUCUGCUGUAUAUCUC

Variants of: B1
Assay: self-cleavage, relative activity (ratio to wild type); higher = more cleavage; in vitro, sequencing
How it was run: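 Libraries of CPEB3 self-cleaving ribozyme mutants came from rounds of error-prone PCR and carried barcodes, which DNA sequencing matched to variants. In vitro transcription used T7 RNA polymerase at 37°C for 5 hours, with a further 15 min in DNase I before EDTA stopped the reaction; the ribozymes cleaved during both steps. The RNA was reverse transcribed with template switching and sequenced on Illumina. Relative activity is the cleaved/total read fraction of a variant divided by that of the unmutated ribozyme, averaged over three batches with at least 5 reads.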

Row | Variant | self-cleavage
1 | A3G A5U U26C | 0.63
2 | A3G A15G C40U | 0.65
3 | A3G A5U U80A | 1.12
4 | A3G A18G U43C U48C U58C | 0.28
5 | A3G A15G G22A U25C A57U U58C U74A | 0.26
6 | A3G A5G A21G C34U U49C A64G A77C | 0.28
7 | A3G A15U A64G A65G U72C | 0.14
8 | A3G A13G U43A A56G U74A | 1.12
9 | A3G A15G U58C | 0.28
10 | A3G A15G U72A | 0.24
11 | A3G A15U A64U U67A | 0.08
12 | A3G A15G C29U U54A | 0.24
13 | A3G A5U A20G U67C U74A | 1.24
14 | A3G A15G C39U | 0.71
15 | A3G A15C U25A | 0.57
16 | A3G A13G U31C C39A | 0.38
17 | A3G A18G U76C | 0.89
18 | A3G A5U U60C | 0.6
19 | A3G A5U U25C U26C A45G C50U A56G | 0
20 | A3G A13U A18G C29U U43C A56G U69C | 0.27
21 | A3G A13U U31C C32G U41C | 0.18
22 | A3G A5U U25C A77C U78C | 0.55
23 | A3G A5G A45U U49A | 0.64
24 | A3G A15G U54A | 1.02

Row | Variant | self-cleavage
25 | A3G A5G U31A U48A U58C | 0.2
26 | A3G A15G A64G | 0.85
27 | A3G A13G C34G U72C U78C | 0.15
28 | A3G A5U U41C A57G | 0.98
29 | A3G A13G A15G U74A A75G | 0.14
30 | A3G A5U A18G U43G U78C | 0.07
31 | A3G A18U A28G G61A | 0.24
32 | A3G A5G A35C U43C U69C | 0.39
33 | A3G A15G C38U U41C U43A | 0.61
34 | A3G A5G U25C U60G A75U U80C | 0.07
35 | A3G A13G C39U U49C A56G | 0.52
36 | A3G A13C U60C | 0.58
37 | A3G A15G C32U A56G A64U U74C | 0.12
38 | A3G A5U C12U U67A | 0.96
39 | A3G A18G U31A | 0.61
40 | A3G A5G G33A U43C G70C | 0.25
41 | A3G A5G C12A U43C U72C U74G | 0.24
42 | A3G A13U A15G A20G A21G | 0.71
43 | A3G A18G U67A U78C | 0.28
44 | A3G A5C G9A A28G | 0.63
45 | A3G A13U C40U U41C U58C | 0.3
46 | A3G A15G G30C C50A A57C | 0.13
47 | A3G A13U U25C U80C | 0.15
48 | A3G A13U A45G U51A U60G U74C | 0.49

Row | Variant | self-cleavage
49 | A3G A5G A21G U51C U69A | 0.35
50 | A3G A5G U51C | 0.83
51 | A3G A15G U26A A45U A65G | 0.12
52 | A3G A18C A35U A56G U58C | 0.36
53 | A3G A13G G33A A65G U74A | 0.08
54 | A3G A18G A20G A65G | 0.17
55 | A3G A15C U48C U67C | 0.15
56 | A3C U48A U51A U80C | 0.41
57 | A3G A13U U51C | 1.19
58 | A3G A15G A28G A47U U49C U80C | 0.36
59 | A3G A15G A35G | 0.76
60 | A3G A13U A28U U54A A75G | 1.08
61 | A3G A13U A64G | 0.9
62 | A3G A13U A35G U60C U72C U78C | 1.07
63 | A3G A13G G46U U72C U80G | 0.44
64 | A3G A15C G36U | 0.39
65 | A3G A5U G22C U31C U51C | 0.49
66 | A3G A5G A20U U31C U72C U78G | 0.11
67 | A3G A13G A35G U72A | 0.2
68 | A3G A15G A65G | 0.46
69 | A3G A13G U54C G70A | 0.34
70 | A3G A5U G8U U31C U51C U72C | 0.11
71 | A3G A13U A21U A57U | 0.37
72 | A3G A5U U25A U54A A57G U78A U80C | 0.14

Row | Variant | self-cleavage
73 | A3G A15G A65G U72A | 0.22
74 | A3G A5U U26C U48G A57C | 0.43
75 | A3G A18G A20G G24A U51C U54C A56G | 0.05
76 | A3G A13G C14A U26A U60C | 0.31
77 | A3G A5U U72C | 0.33
78 | A3G A5G C37U U54C A57G | 0.54
79 | A3G A13U U43C U67C U80C | 0.17
80 | A3G A13G A18U C29A | 0.37
81 | A3G A5G A13G U72G U80C | 0.84
82 | A3G A15G G30A A65G | 0.37
83 | A3G A5G G61A U69A U78C | 0.25
84 | A3G A5G U31A A35G G52U A64G U80A | 0.99
85 | A3G A15G U31C U48C | 0.68
86 | A3G A13G C62U U74A | 0.38
87 | A3G A15U U25C U78C | 0.48
88 | A3G A15G C38A U80C | 0.6
89 | A3G A13G U41C A75G | 0.74
90 | A3G A13U U41C A65G | 0.56
91 | A3G A13G U48C G53A A65G U74C | 0.07
92 | A3G A5U G22C U31C | 0.26
93 | A3G A5G U60A U76C U78A | 0.15
94 | A3G A13U A28G U31A U69C | 0.36
95 | A3G A5G C23G A28G U58A | 0.18
96 | A3G A13C G19U C40A | 0.13

Row | Variant | self-cleavage
97 | A3G A15C U41C A45G | 1.03
98 | A3G A18G U43A A77U | 0.93
99 | A3G A13U U31A U41C U69C | 0.23
100 | A3G A5G A28U U31C U41A U43A G70C | 0.2
101 | A3G A13G G46U U51A A57G U80G | 0.31
102 | A3G A5G A21U A45U | 0.48
103 | A3G A15G U25A C34U U43C U49C U69C | 0.17
104 | A3G A5U A21G U54C | 1.02
105 | A3G A5G A28G | 0.58
106 | A3G A15U A18G A21G U74C U76A | 0.19
107 | A3G A5G A13U A56U | 0.72
108 | A3G A5C G55A | 0.55
109 | A3G A5U G9U C50U C71A U78C | 0.04
110 | A3G A5G A18G C71U U80C | 0.56
111 | A3G A15G A18G A21G U72A | 0.17
112 | A3G A18G A45U U51C | 0.46
113 | A3G A5C A65G | 0.81
114 | A3G A5G A20U | 1.02
115 | A3G A13C A18C U60C U66C | 0.35
116 | A3G A5U G24U G63A U72C A77G | 0.1
117 | A3G A15G U58C U69C | 0.24
118 | A3G A15G A18G U31A A65G U67A U69C | 0.3
119 | A3G A15G C34U U72A | 0.43
120 | A3G A18G U41C U54C U80C | 0.95

Row | Variant | self-cleavage
121 | A3G A13G U25C G46C | 0.1
122 | A3G A5G A13G U51A U80C | 0.76
123 | A3G A15C U26A U51C U72A | 0.74
124 | A3G A5G U26C A57C U66C | 0.21
125 | A3G A18G U25C U31G A35G | 0
126 | A3G A18G A21G | 0.32
127 | A3G A5U A18U U67C | 0.16
128 | A3G A18G U25C A77U U78C | 0.08
129 | A3G A13G A20U A28G | 0.08
130 | A3G A5U U41C U78C | 1.06
131 | A3G A5U C12U U76C U78C | 1.2
132 | A3G A15U C29U C68A U80C | 0.09
133 | A3G A13G U31C | 0.54
134 | A3G A5G A15U G42U U48C | 0.38
135 | A3G A13G C38U G42A U69C | 0.07
136 | A3G A5U A21G | 0.79
137 | A3G A13G A20G A57G U60C | 0.79
138 | A3G A5G A21G U26C U31C C37U A45U | 0.07
139 | A3G A5U G24C U80C | 0.16
140 | A3G A5G A56G U60A A65G | 0.71
141 | A3G A13C A20U A77U | 0.21
142 | A3G A15U A45U G46C U51A U67C U74C | 0.09
143 | A3G A15C A45G A75U | 0.86
144 | A3G A13G A47G A65U | 0.39

Row | Variant | self-cleavage
145 | A3G A18G A20G A35U C39U U49C | 0.06
146 | A3G A15U G16A A20G G36U U41C U43C | 0.03
147 | A3G A5G A15U A18U A57G | 0.19
148 | A3G A13G U31G G46U U80G | 0.63
149 | A3G A13G U26A U51C A65G | 0.37
150 | A3G A15G U49C U54A A56G A57G | 0.37
151 | A3G A15G G22C U31C | 0.4
152 | A3G A15G A18U U26A A45U G61A | 0.07
153 | A3C U58C U66C | 0.26
154 | A3G A5U A15G U26A A45U U60C | 0.16
155 | A3G A13G A21G | 0.32
156 | A3G A13U U43C U54A U80C | 0.49
157 | A3G A13U A35C U41C | 1.09
158 | A3G A5U U31C U54C A64G | 0.66
159 | A3G A15U U25A U49C U58C A64G G73A | 0.31
160 | A3G A18C U31A A57G | 0.08
161 | A3G A13U U26C U41A | 0.09
162 | A3G A5U C14U C40U U51A | 0.77
163 | A3G A13U A65G U69C | 0.19
164 | A3G A5U G33A A56G U58G U78C | 0.1
165 | A3G A13U A18G U58C U69C U78C | 1.06
166 | A3G A5G U49C A56U A65G | 0.15
167 | A3G A18C U69C | 0.25
